Data reported in the supplement of paper PMC12217912.
This is one part of the list. Sequences were assembled here from the parent chain. Inactive controls read about 0.05.

B1: TEV protease; numbered along this chain (parent)
chain: MGESLFKGPRDYNPISSSICHLTNESDGHTTSLYGIGFGPFIITNKHLFRRNNGTLVVQSLHGVFKVKDTTTLQQHLVDGRDMIIIRMPKDFPPFPQKLKFREPQREERICLVTTNFQTKSMSSMVSDTSCTFPSGDGIFWKHWIQTKDGQCGSPLVSTRDGFIVGIHSASNFTNTNNYFTSVPKNFMELLTNQEAQQWVSGWRLNADSVLWGGHKVFMVKPEEPFQPVKEATQL

Variants of: B1
Test: raw area under fraction-flipped curve 0-4 h after induction (AUC4h, not background-subtracted), DNA-recorder readout of cleavage of the substrate (dimensionless); higher = more cleavage of the substrate by the protease variant
Details: temperature: 34 °C; time window: 0-4 h after rhamnose induction
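Note: Bxb1 expression induced with 0.2% (w/v) L-rhamnose at OD600 near 0.5, cultures sampled hourly, flipped fraction per protease–substrate barcode pair counted by paired-end Illumina sequencing.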

| Variant | area with substrate EDLYFQS | area with substrate EELYFQS | area with substrate EFLYFQS | area with substrate EGLYFQS | area with substrate EHLYFQS | area with substrate EILYFQS | area with substrate EKLYFQS | area with substrate EQLYFQS | area with substrate ERLYFQS | area with substrate ESLYFQS | area with substrate ETLYFQS | area with substrate EVLYFQS | area with substrate EWLYFQS | area with substrate EMLYFQS | area with substrate EPLYFQS | area with substrate ELLYFQS | area with substrate EYLYFQS |
| --- | --- | --- | --- | --- | --- | --- | --- | --- | --- | --- | --- | --- | --- | --- | --- | --- | --- |
| MGESLFKGPRDYNPISSSICHLTNESDGHTTSLYGIGFGPFIITNKHLSRRNNGTLVVQSLHGVFKVKDTTTLQQHLVDGRDMIIIRMPKDFPPFPQKLKFREPQREERICLVTTNFQTKSMSSMVSDTSCTFPSGDGIFWKHWIQTKDGQCGSPLVSTRDGFIVGIHSASNFTNTNNYFTSVPKNFMELLTNQEAQQWVSGWRLNADSVLWGGHKVFMVKPEEPFQPVKEATQL [F49S] | 0.0849 | 0.0647 | 0.0254 | 0.0644 | 0.0668 | 0.0692 | 0.0526 | 0.0648 | 0.0666 | 0.0657 | 0.0522 | 0.0579 | 0.0536 |  |  |  |  |
| MGESLFKGPRDYNPISSSICHLTNESDGHTTSLEGIGFGPFIITNKHLFRRNNGTLVVQSLHGVFKVKDTTTLQQHLVDGRDMIIIRMPKDFPPFPQKLKFREPQREERICLVTTNFQTKSMSSMVSDTSCTFPSGDGIFWKHWIQTKDGQCGSPLVSTRDGFIVGIHSASNFTNTNNYFTSVPKNFMELLTNQEAQQWVSGWRLNADSVLWGGHKVFMVKPEEPFQPVKEATQL [Y34E] | 0.0719 | 0.0793 |  | 0.0694 |  |  | 0.0695 | 0.0882 |  | 0.066 |  |  |  | 0.0717 | 0.0475 |  |  |
| MGESLFKGPRDYNPISSSICHLTNESDGHTTSLYGIGFGPFIITNKHLFRRNNGTLVVQSLHGVFKVKDTTTLQQHLVDGRDMIIIRMPKDFPPFPQKLKFREEQREERICLVTTNFQTKSMSSMVSDTSCTFPSGDGIFWKHWIQTKDGQCGSPLVSTRDGFIVGIHSASNFTNTNNYFTSVPKNFMELLTNQEAQQWVSGWRLNADSVLWGGHKVFMVKPEEPFQPVKEATQL [P104E] | 0.0425 | 0.056 |  |  | 0.049 | 0.0573 |  |  |  | 0.0443 |  |  |  | 0.0378 | 0.0249 | 0.0576 |  |
| MGESLFKGPRDYNPISSSICHLTNESDGHTTSLYGIGFGPFIITNKHLFFRNNGTLVVQSLHGVFKVKDTTTLQQHLVDGRDMIIIRMPKDFPPFPQKLKFREPQREERICLVTTNFQTKSMSSMVSDTSCTFPSGDGIFWKHWIQTKDGQCGSPLVSTRDGFIVGIHSASNFTNTNNYFTSVPKNFMELLTNQEAQQWVSGWRLNADSVLWGGHKVFMVKPEEPFQPVKEATQL [R50F] | 0.156 |  |  |  | 0.155 | 0.16 | 0.198 | 0.14 |  | 0.172 | 0.0052 |  |  |  | 0.149 | 0.143 | 0.149 |
| MGESLFKGPRDYNPISSSICHLTNESDGHTTSLYGIGFGPFIITNKHLFRRNNGTLVVQSLHGVFTVKDTTTLQQHLVDGRDMIIIRMPKDFPPFPQKLKFREPQREERICLVTTNFQTKSMSSMVSDTSCTFPSGDGIFWKHWIQTKDGQCGSPLVSTRDGFIVGIHSASNFTNTNNYFTSVPKNFMELLTNQEAQQWVSGWRLNADSVLWGGHKVFMVKPEEPFQPVKEATQL [K66T] | 0.139 | 0.17 | 0.102 | 0.12 |  |  | 0.123 | 0.116 | 0.126 |  | 0.108 | 0.112 |  | 0.103 |  |  |  |
| MGESLFKGPRDYNPISSSICHLTNESDGHTTSLYGIGFGPFIITNKHLFRRNNGTLVVQSLHGVFKVKDTTTLQQHLVDGRDMIIARMPKDFPPFPQKLKFREPQREERICLVTTNFQTKSMSSMVSDTSCTFPSGDGIFWKHWIQTKDGQCGSPLVSTRDGFIVGIHSASNFTNTNNYFTSVPKNFMELLTNQEAQQWVSGWRLNADSVLWGGHKVFMVKPEEPFQPVKEATQL [I86A] | 0.0833 | 0.0805 | 0.0723 | 0.0657 |  | 0.0451 | 0.0713 | 0.0754 |  | 0.0697 | 0.0785 | 0.0693 | 0.0806 | 0.0697 | 0.0854 |  | 0.0698 |
| MGESLFKGPRDYNPISSSICHLTNESDGHTTSCYGIGFGPFIITNKHLFRRNNGTLVVQSLHGVFKVKDTTTLQQHLVDGRDMIIIRMPKDFPPFPQKLKFREPQREERICLVTTNFQTKSMSSMVSDTSCTFPSGDGIFWKHWIQTKDGQCGSPLVSTRDGFIVGIHSASNFTNTNNYFTSVPKNFMELLTNQEAQQWVSGWRLNADSVLWGGHKVFMVKPEEPFQPVKEATQL [L33C] | 0.102 | 0.121 |  |  |  | 0.116 | 0.104 |  | 0.124 | 0.135 |  | 0.119 |  | 0.115 | 0.11 | 0.106 | 0.0747 |
| MGESLFKGPRDYNPISSSICHLTNESDGHTTSLYGIGFGPFIITNKHLFRRNNGTLVVQSLHGVFKVKDTTTLQQHMVDGRDMIIIRMPKDFPPFPQKLKFREPQREERICLVTTNFQTKSMSSMVSDTSCTFPSGDGIFWKHWIQTKDGQCGSPLVSTRDGFIVGIHSASNFTNTNNYFTSVPKNFMELLTNQEAQQWVSGWRLNADSVLWGGHKVFMVKPEEPFQPVKEATQL [L77M] | 0.0782 | 0.0799 |  |  |  | 0.0654 |  |  | 0.0778 |  |  | 0.0674 |  |  | 0.0825 |  |  |
| MGESLFKGPRDYNPISSSICHLTNESDGHTTSLYGIGFGPFIITNKHLFRRNNGTLVVQSLHGVFKVKDTTTLQQHLVDGRDMIIIRMPKDFPPFPQKLKDREPQREERICLVTTNFQTKSMSSMVSDTSCTFPSGDGIFWKHWIQTKDGQCGSPLVSTRDGFIVGIHSASNFTNTNNYFTSVPKNFMELLTNQEAQQWVSGWRLNADSVLWGGHKVFMVKPEEPFQPVKEATQL [F101D] | 0.0428 |  | 0.035 |  |  |  |  |  |  | 0.0579 |  | 0.032 |  |  |  |  |  |
| MGESLFKGPRDYNPISSSICHLTNESDGHTTSLYGIGFGPFIITNKHLFRRNNGTLVVQSLHGVFKVKDTTTLQQHLVDGRDMIIIRMPKDFPPFPQKLKYREPQREERICLVTTNFQTKSMSSMVSDTSCTFPSGDGIFWKHWIQTKDGQCGSPLVSTRDGFIVGIHSASNFTNTNNYFTSVPKNFMELLTNQEAQQWVSGWRLNADSVLWGGHKVFMVKPEEPFQPVKEATQL [F101Y] | 0.0924 | 0.0974 |  | 0.0733 | 0.0804 |  |  |  | 0.048 | 0.0797 |  | 0.0941 |  | 0.0864 |  |  | 0.086 |
